Drawing on publication PMC4242493, this text covers binding signal (normalized occupancy) for 109 sequences.

This is one part of the list. The list includes weakly bound sequences.

For this assay, the target named is MaxL homodimer (UniProt P61244). The assay can be described thus: universal protein-binding microarray (PBM). The conditions noted are these: PBS-based mixture, 10 nM His-tagged protein dimer, 2% milk, 200 ng/uL BSA, 50 ng/uL salmon testes DNA, 0.02% TX-100; detection with Alexa 488 anti-His …; high values mean tight binding; most listed sequences are background and not binding sites; double strand, one strand shown.
Chain of UniProt P61244 (P61244 whole entry): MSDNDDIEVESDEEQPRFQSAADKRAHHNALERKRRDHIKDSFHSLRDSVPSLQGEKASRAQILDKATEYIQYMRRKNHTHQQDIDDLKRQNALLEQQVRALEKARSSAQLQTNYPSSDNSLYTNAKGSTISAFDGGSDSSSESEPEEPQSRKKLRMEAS
Consider CAAAAAAA, for which the binding signal (normalized occupancy) was 0.0719.
Take ACAAGCGG: the binding signal (normalized occupancy) came out at 0.0698.
For the sequence AACCTACA, the binding signal (normalized occupancy) turned out to be 0.0778.
The value for ATAAGAGC was 0.0718.
For the sequence CCACGCGC, the binding signal (normalized occupancy) is 0.157.
On to AACGAGAA, for which the binding signal (normalized occupancy) amounted to 0.0745.
In the case of AACCCACG, the binding signal (normalized occupancy) is 0.0944.
The value for TGAACACA was 0.0761; that for AGGAGTCC was 0.0714.
GCCAGACC: the binding signal (normalized occupancy) amounted to 0.0697.
As for AGACGGTA, the binding signal (normalized occupancy) was found to be 0.0685.
The value for GCATCAAA was 0.0774; that for AAACACGT was 0.106; that for ATACTAAC was 0.0807.
Regarding AAATTGCT, the binding signal (normalized occupancy) was 0.0723.
GAAGAGGC: the binding signal (normalized occupancy) turned out to be 0.0738.
Regarding CTGAGGAC, the binding signal (normalized occupancy) turned out to be 0.0703.
On to CTTCCAGA, for which the binding signal (normalized occupancy) worked out at 0.0713.
The value for TGATCTAA was 0.0794; that for AAGGCCTC was 0.0711; that for ACAGTTGG was 0.0661.
Turning to AATATATA, the binding signal (normalized occupancy) came out at 0.0875.
As to GTTCATCA, the binding signal (normalized occupancy) worked out at 0.0772.
CGTCGGGC: the binding signal (normalized occupancy) is 0.0634.
On to CCAGTGAC, for which the binding signal (normalized occupancy) came out at 0.0714.
In the case of TGAGAGAA, the binding signal (normalized occupancy) came to 0.0879.
With CGACATTC, the binding signal (normalized occupancy) stood at 0.0758.
As to CGTCCTCC, the binding signal (normalized occupancy) turned out to be 0.0755.
With ACATTCTA the figure was 0.0802; with AGGACGTA, 0.0761.
The value for CTTAAATA was 0.0752; that for GGGATGGA was 0.0821.
As for TCAAATAA, the binding signal (normalized occupancy) is 0.0786.
For GTCAAGAA, the binding signal (normalized occupancy) was 0.0742.
In the case of GCGACAAA, the binding signal (normalized occupancy) is 0.0733.
On to CGTGTCGA, for which the binding signal (normalized occupancy) stood at 0.0757.
ACAGCCAG: the binding signal (normalized occupancy) turned out to be 0.0734.
Consider ATTAAACG, for which the binding signal (normalized occupancy) was found to be 0.0777.
As for AGAGTCGG, the binding signal (normalized occupancy) was 0.068.
With GACGAGAC, the binding signal (normalized occupancy) was determined as 0.0761.
Turning to CAAGGAAG, the binding signal (normalized occupancy) was found to be 0.074.
Turning to ACCACTCA, the binding signal (normalized occupancy) came out at 0.0788.
GCTTGCTA: the binding signal (normalized occupancy) turned out to be 0.0702.
Turning to TAAGGGGA, the binding signal (normalized occupancy) came to 0.0736.
With CCGTTTGA the figure was 0.0729.
In the case of AAGGTGCC, the binding signal (normalized occupancy) worked out at 0.0753.
For the sequence CTTGCCAA, the binding signal (normalized occupancy) was 0.0716.
Take CGCGAGAA: the binding signal (normalized occupancy) is 0.0735.
The value for AAGCTCCG was 0.0661; that for AATTCAGC was 0.0753.
As for AATCACGG, the binding signal (normalized occupancy) was found to be 0.0727.
For the sequence GAGATATC, the binding signal (normalized occupancy) is 0.0698.
With AGGTGCTC the figure was 0.0817; with AATACCGA, 0.0704.
Regarding AAAACTCG, the binding signal (normalized occupancy) turned out to be 0.069.
As for CTAGGGAA, the binding signal (normalized occupancy) came to 0.0709.
For ACGAGCAC, the binding signal (normalized occupancy) turned out to be 0.0839.
As to AGAGGCCT, the binding signal (normalized occupancy) is 0.0686.
CTGTTAAC: the binding signal (normalized occupancy) was 0.0785.
Take AACTAGAC: the binding signal (normalized occupancy) came to 0.0708.
The value for AACACCGC was 0.0718.
Take GAGGCCAC: the binding signal (normalized occupancy) came to 0.0789.
Take AGGGGGAT: the binding signal (normalized occupancy) was 0.0827.
With CCAGGGAG the figure was 0.068; with CGTACACG, 0.0971.
For AGCGTGAC, the binding signal (normalized occupancy) amounted to 0.101.
On to TGCTACAA, for which the binding signal (normalized occupancy) was 0.0792.
On to GAAGCTTC, for which the binding signal (normalized occupancy) amounted to 0.0666.
On to AACAAGTT, for which the binding signal (normalized occupancy) turned out to be 0.0695.
Take GTTAGTTA: the binding signal (normalized occupancy) came out at 0.0776.
As to CATAGAAG, the binding signal (normalized occupancy) was found to be 0.0744.
For the sequence AAAGACCG, the binding signal (normalized occupancy) stood at 0.0683.
Consider CTACCCTA, for which the binding signal (normalized occupancy) came out at 0.0765.
For the sequence CAATGATG, the binding signal (normalized occupancy) is 0.0851.
The value for ACTTCCCT was 0.0738; that for CAGGAACG was 0.0705.
Consider CATCAGGA, for which the binding signal (normalized occupancy) is 0.0778.
On to AACTCAAG, for which the binding signal (normalized occupancy) is 0.0679.
With ACCAGCAT, the binding signal (normalized occupancy) worked out at 0.0829.
For GGGTCGAC, the binding signal (normalized occupancy) came to 0.0706.
Regarding CACGGCTC, the binding signal (normalized occupancy) came to 0.0728.
With CTTATAGA the figure was 0.0769; with ATATCCAT, 0.088.
Regarding AGGCCCCT, the binding signal (normalized occupancy) was found to be 0.0749.
On to ACACTGCG, for which the binding signal (normalized occupancy) was determined as 0.077.
As to CTGGGAAC, the binding signal (normalized occupancy) amounted to 0.0716.
As for GGTCATAA, the binding signal (normalized occupancy) is 0.073.
GCGTGACC: the binding signal (normalized occupancy) was determined as 0.103.
With ATACATCA the figure was 0.087; with AAACGCTG, 0.0733; with ATCTAACG, 0.0779.
For the sequence CCCAGCAG, the binding signal (normalized occupancy) came out at 0.0737.
With ACACCTGC the figure was 0.0956; with CGACCCTA, 0.0751.
In the case of AATCATGT, the binding signal (normalized occupancy) worked out at 0.0985.
With AGCTATAC the figure was 0.0735; with ATACGTTG, 0.0823.
On to ACTTTTGC, for which the binding signal (normalized occupancy) turned out to be 0.0698.
ATGACAAT: the binding signal (normalized occupancy) is 0.0768.
For the sequence CAACCAGC, the binding signal (normalized occupancy) was 0.0699.
As to CACCAAAA, the binding signal (normalized occupancy) was 0.0711.
Regarding GGTCACGA, the binding signal (normalized occupancy) was found to be 0.0843.
For the sequence CTGGTGGA, the binding signal (normalized occupancy) worked out at 0.0808.
Take TCCCCAGA: the binding signal (normalized occupancy) was 0.0738.
The value for ATTAGATA was 0.0818.
With CTAATCCA the figure was 0.0814; with ACTAGGCG, 0.0726; with CACGGGAA, 0.0786.
On to CGCTGTGA, for which the binding signal (normalized occupancy) came to 0.0742.
